± gives the standard deviation of the averaged measurements. The list shows a part of the results.

The test system of the experiment is PfAP2-LT AP2 domain (GST-tagged). Kind of experiment: gcPBM binding intensity (ln(normalized median fluorescence intensity)); higher = stronger DNA binding. The method in brief:
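Using an Agilent 4 × 180k array, primer-extended double-stranded 36-bp intergenic genomic probes and negative controls were exposed for 1 h to GST-fused P. falciparum DNA-binding domains expressed in E. coli. Binding was carried out in 1× PBS with 1% milk, 0.2 mg/ml BSA, 0.5% salmon testes DNA and 0.03% Triton X-100, and protein was detected with Alexa488 anti-GST antibody and a 488 nm scan. Binding intensity is the highest Masliner-normalised natural-log median intensity across replicate spots of either probe orientation.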
“CATATACTTCTGTGCACACGAATATTTTTCTTCTTC [CACACA_site1407]”: the “gcPBM binding intensity (ln)” value was 9.35 ± 0.4.

“TGTTGTCCTAATTCTACACACAATGGTTTATTAAAA [CACACA_site2648]”: the “gcPBM binding intensity (ln)” value turned out to be 8.91 ± 0.38.

For “TATACTCATATTTTTACACACATATTTTTTCATATA [CACACA_site5412]”, the “gcPBM binding intensity (ln)” value is 9.05 ± 0.5.

As to “TTTTAACGTAAAACATTGATGATATAAAAAATAGGA [GTGCAC_negctrl_site540]”, the “gcPBM binding intensity (ln)” value is 8.44 ± 0.45.

In the case of “TTAAAATATACATAAACACACACAAAACGTTTAAGA [CACACA_site8267]”, the “gcPBM binding intensity (ln)” value stood at 9.24 ± 0.38.

In the case of “AATTTAAAATATATAGTACACACGTGAACACAAATA [CACACA_site416]”, the “gcPBM binding intensity (ln)” value came to 8.9 ± 0.43.

As to “TTTTTTTTTTTTTTTTTTTTCACATGTGTGGAAAAA [GTGCAC_negctrl_site352]”, the “gcPBM binding intensity (ln)” value worked out at 8.28 ± 0.29.

Consider “AGGATATATAAGTATACACACATATTTATATTTATA [CACACA_site6239]”, for which the “gcPBM binding intensity (ln)” value stood at 8.87 ± 0.45.

As for “TGTATTTATAATAAAACACACATTTTTAATGTGCTC [CACACA_site4908]”, the “gcPBM binding intensity (ln)” value stood at 8.78 ± 0.57.

Consider “TAACAATAACTTTATACACACATAATATATATATAT [CACACA_site3543]”, for which the “gcPBM binding intensity (ln)” value turned out to be 8.98 ± 0.32.

For the sequence “AAAAAAAAAAAAAACACACACACACCCATAAATATA [CACACA_site151]”, the “gcPBM binding intensity (ln)” value was 10.2 ± 0.15.

As to “TTTGTGTTTATAAATTGTACAAAGGTGCAAGAAGAA [XGTACX_site2159]”, the “gcPBM binding intensity (ln)” value worked out at 8.84 ± 0.45.

“ATATGATCATAAAACACACACACAAAAAAAAAAAAA [CACACA_site1806]”: the “gcPBM binding intensity (ln)” value was 9.62 ± 0.45.

“AAAAAAAAAAAACACACACACAATAGTATATAAATC [CACACA_site956]”: the “gcPBM binding intensity (ln)” value was 9.8 ± 0.4.

Regarding “TTCAAGCCCTTCTGCTTACACACAGTAATTATTGTG [CACACA_site2952]”, the “gcPBM binding intensity (ln)” value is 9.31 ± 0.25.

Turning to TATTTTTATTATATGGTGCATATATACATACATATA, the “gcPBM binding intensity (ln)” value amounted to 8.72 ± 0.4.

In the case of “AAGTGCATATTATTCACACATAATAATTGTATACCT [CACACA_site5965]”, the “gcPBM binding intensity (ln)” value amounted to 8.9 ± 0.4.

Regarding “TGTAAATTATAACGTGCACACATATTTAAAATGAAA [CACACA_site8915]”, the “gcPBM binding intensity (ln)” value was 9.01 ± 0.36.

Consider “ATATAGAAAATGCATACACACTTTATAAATATATTT [CACACA_site6553]”, for which the “gcPBM binding intensity (ln)” value was 8.87 ± 0.45.

For “AGATATTTATTGAGTGCATGTTATAAAGGGAAAAAA [TGCATGCA_site88]”, the “gcPBM binding intensity (ln)” value was determined as 8.61 ± 0.42.

For “AATTAGATGGATAAATGTACATAATGTGAATATATT [XGTACX_site86]”, the “gcPBM binding intensity (ln)” value turned out to be 8.98 ± 0.42.

Consider “ATCCACTTTTTGAAGACACACACAAAAAAAAAAAAA [CACACA_site8818]”, for which the “gcPBM binding intensity (ln)” value stood at 8.95 ± 0.4.

As for “TAAAAATAATTTGCATGTACATAGGTCGATGTATTT [XGTACX_site1357]”, the “gcPBM binding intensity (ln)” value was determined as 8.87 ± 0.4.

As for “TAATGAGGAAATACAGCACACGTTATTACACTTTTC [CACACA_site5399]”, the “gcPBM binding intensity (ln)” value is 9.04 ± 0.38.

For “AATAATGTTATAAATTGTACGTGTATTATTCATTAC [XGTACX_site894]”, the “gcPBM binding intensity (ln)” value turned out to be 8.96 ± 0.43.

“AAATTGGTTCATCAATGTACATGTAAAATAAATCAA [XGTACX_site4795]”: the “gcPBM binding intensity (ln)” value stood at 8.81 ± 0.44.

For the sequence “TATATTTATCCATACAAGAAAAAAAAAAAAAAAATA [CACACA_negctrl_site1328]”, the “gcPBM binding intensity (ln)” value is 8.36 ± 0.42.

On to “TACACCCACCCACATACACACACATACACATATATA [CACACA_site8503]”, for which the “gcPBM binding intensity (ln)” value is 10.1 ± 0.21.

With “AAAAAAAAAAATATATTAAAATAAAAAATATTAACA [GTGCAC_negctrl_site13]”, the “gcPBM binding intensity (ln)” value stood at 8.3 ± 0.61.

Take “CCACTTAAAATAAAAAGTACATACAGGTGTTATACA [XGTACX_site8124]”: the “gcPBM binding intensity (ln)” value is 8.68 ± 0.39.

In the case of AGCATATTATTTTAGGTGCACTTGAAATGTGTTAAC, the “gcPBM binding intensity (ln)” value worked out at 8.86 ± 0.38.

In the case of “TTTAAATAAAATATTACACACTTAGAAAGATATATA [CACACA_site7684]”, the “gcPBM binding intensity (ln)” value was determined as 8.46 ± 0.52.

For the sequence “TTTTTTTTTTATTGTACATGCAAAAAATTCCACACA [TGCATGCA_site279]”, the “gcPBM binding intensity (ln)” value was 8.58 ± 0.47.

For the sequence “CAAATAAAAACAAAACGTACGAATAAATTATTGTTA [XGTACX_site5136]”, the “gcPBM binding intensity (ln)” value is 9 ± 0.44.

On to “ATATCGTTATTTTTATGTACTAAAATATTTAATTAT [XGTACX_site3516]”, for which the “gcPBM binding intensity (ln)” value is 8.71 ± 0.49.

As to “TATTTGATCTAAAGAGCATGCAAAAACGAACAAGAT [TGCATGCA_site136]”, the “gcPBM binding intensity (ln)” value worked out at 9.21 ± 0.33.

With ATATATAAAAATTAGGTGCATTAAATTAAAATATAT, the “gcPBM binding intensity (ln)” value was found to be 8.61 ± 0.47.

As to “CACATATAAATATTAACACACATAATGAATTATATA [CACACA_site2741]”, the “gcPBM binding intensity (ln)” value was found to be 8.93 ± 0.37.

For “TTTATATAAATTTTTTGTACACAAGTAAAAACGCGT [XGTACX_site2459]”, the “gcPBM binding intensity (ln)” value is 8.54 ± 0.53.

For “ACACAAATAAATATAACATATATATTATATTATATT [CACACA_negctrl_site710]”, the “gcPBM binding intensity (ln)” value was determined as 8.8 ± 0.45.

Take “TCAATATTAAATTATTGTACATGTATGTATATATAT [XGTACX_site3861]”: the “gcPBM binding intensity (ln)” value turned out to be 8.76 ± 0.45.

Take “TTTTTTTTTTTTTTTTTACACACTTTATTCAAACAA [CACACA_site9360]”: the “gcPBM binding intensity (ln)” value worked out at 8.44 ± 0.43.

For “ATAAAATATATATATATAAAAATAAATACATAAATA [GTGCAC_negctrl_site157]”, the “gcPBM binding intensity (ln)” value was determined as 8.82 ± 0.46.

Take “AATATAAAACTTTAGAGTACTTATCATTAAAATATA [XGTACX_site4509]”: the “gcPBM binding intensity (ln)” value was 8.36 ± 0.6.
